Measurements reported in paper PMC11995724, “Antibiotic target discovery by integrated phenotypic and activity-based profiling of electrophilic fragments” (Cell chemical biology, 2025).
Among all 3,200 compounds or so, about 75 (2%) showed an effect of 50% or more. The list shows a part of the results.

System: T1, S. aureus MSSA476
T1 construct: MSSA476
Parameters: species or system S. aureus MSSA476 (TSB) or V. cholerae SAD30 (LB); 384-well bacterial growth screen at 25 uM, OD600 relative to DMSO control
Details: relative growth, OD600, TSB; 25 µM; inhibitor

| SMILES | % of control remaining [%] |
| --- | --- |
| C=CC(=O)NCCN1CCCCC1C (stereo not shown) [2-M09, N-[2-(2-methylpiperidin-1-yl)ethyl]prop-2-enamide] | 94.3429 |
| C=CC(=O)N1CCC(O)(C(F)(F)C(N)=O)C1 (stereo not shown) [2-C16, 2,2-difluoro-2-[3-hydroxy-1-(prop-2-enoyl)pyrrolidin-3-yl]acetamide] | 131.941 |
| CCOc1ccc2nc(NC(=O)CCl)sc2c1 [4-L10, 2-chloro-N-(6-ethoxy-1,3-benzothiazol-2-yl)acetamide] | 129.586 |
| O=C(CCl)Cc1ccc(F)c(F)c1 [10-O17, 1-chloro-3-(3,4-difluorophenyl)propan-2-one] | 107.813 |
| NC(=O)COc1ccc(C(=O)CCl)cc1 [10-M07, 2-[4-(2-chloroacetyl)phenoxy]acetamide] | 111.563 |
| C=CC(=O)NCCC(=O)NC1CCCCC12OCCO2 (stereo not shown) [2-O08, N-[2-({1,4-dioxaspiro[4.5]decan-6-yl}carbamoyl)ethyl]prop-2-enamide] | 124.63 |
| Cl.O=C(CCl)Nc1ccc(CN2CCCCC2)cc1 [6-M04, 2-chloro-N-{4-[(piperidin-1-yl)methyl]phenyl}acetamide hydrochloride] | 110.976 |
| N#CC(=Cc1cn(-c2ccccc2)nc1-c1ccc(Cl)cc1)C(N)=O [8-H16, 3-[3-(4-chlorophenyl)-1-phenyl-1H-pyrazol-4-yl]-2-cyanoprop-2-enamide] | 107.552 |
| N#CC(=Cc1cc(F)ccc1F)C(=O)Nc1cc(Cl)ccc1Cl [8-A12, 2-cyano-N-(2,5-dichlorophenyl)-3-(2,5-difluorophenyl)prop-2-enamide] | 131.12 |
| C=CC(=O)Nc1ccnn1CC1CC1 [3-G09, N-[1-(cyclopropylmethyl)-1H-pyrazol-5-yl]prop-2-enamide] | 117.719 |
| C=CC(=O)NC1CCC(c2nc(CC)no2)CC1 (stereo not shown) [1-O08, N-[4-(3-ethyl-1,2,4-oxadiazol-5-yl)cyclohexyl]prop-2-enamide] | 122.374 |
| N#CC(=Cc1ccc(Sc2ccccc2)o1)C(=O)Nc1ccccc1 [8-K05, 2-cyano-N-phenyl-3-[5-(phenylsulfanyl)furan-2-yl]prop-2-enamide] | 128.465 |
| O=C(CCl)NC(=O)Nc1ccccc1 [4-I17, 3-(2-chloroacetyl)-1-phenylurea] | 104.431 |
| O=C(CCl)Nc1ccc(F)cc1[N+](=O)[O-] [4-I07, 2-chloro-N-(4-fluoro-2-nitrophenyl)acetamide] | 119.295 |
| O=C(CCl)NCCSc1ccccc1 [4-G21, 2-chloro-N-[2-(phenylsulfanyl)ethyl]acetamide] | 99.4759 |
| C=CC(=O)Nc1cc(C(=O)CC)ccc1F [2-C22, N-(2-fluoro-5-propanoylphenyl)prop-2-enamide] | 105.135 |

| SMILES | % of control remaining [%] |
| --- | --- |
| C=CC(=O)N1CCC(C(=O)NCc2ccc(Cl)cc2Cl)CC1 [1-E20, N-[(2,4-dichlorophenyl)methyl]-1-(prop-2-enoyl)piperidine-4-carboxamide] | 109.363 |
| CNC(=O)C(NC(=O)CCl)c1ccccc1 (stereo not shown) [6-M06, 2-(2-chloroacetamido)-N-methyl-2-phenylacetamide] | 96.9756 |
| CN(CC(=O)Nc1ccccc1C(F)(F)F)C(=O)CCl [4-K05, 2-chloro-N-methyl-N-({[2-(trifluoromethyl)phenyl]carbamoyl}methyl)acetamide] | 92.6155 |
| CC(Cl)C(=O)Nc1ccc(C(=O)N(C)C2CCCN(C)C2)cc1 (stereo not shown) [7-I20, 4-(2-chloropropanamido)-N-methyl-N-(1-methylpiperidin-3-yl)benzamide] | 87.9121 |
| C=CC(=O)N1CCNC(=O)C1Cc1nc2ccccc2o1 (stereo not shown) [1-B20, 3-[(1,3-benzoxazol-2-yl)methyl]-4-(prop-2-enoyl)piperazin-2-one] | 119.209 |
| CC(C)Oc1ccc(C=C(C#N)C(=O)NC2CCCC2)cc1 [8-O10, 2-cyano-N-cyclopentyl-3-[4-(propan-2-yloxy)phenyl]prop-2-enamide] | 92.2822 |
| CC(Cl)C(=O)N(c1ccccc1)C1CCOC1 (stereo not shown) [7-G14, 2-chloro-N-(oxolan-3-yl)-N-phenylpropanamide] | 106.75 |
| CC(CNC(=O)C(C)Cl)Oc1cccc(Cl)c1 (stereo not shown) [6-F13, 2-chloro-N-[2-(3-chlorophenoxy)propyl]propanamide] | 94.2439 |
| C=CC(=O)N1CCC(C(=O)N2CCC(C(=O)NC3CC3)CC2)CC1 [2-D10, N-cyclopropyl-1-[1-(prop-2-enoyl)piperidine-4-carbonyl]piperidine-4-carboxamide] | 106.527 |
| COc1ccccc1N1C(=O)C=CC1=O [10-O10, 1-(2-methoxyphenyl)-2,5-dihydro-1H-pyrrole-2,5-dione] | 118.438 |
| CCOc1ccccc1NC(=O)C(C)Cl (stereo not shown) [6-M10, 2-chloro-N-(2-ethoxyphenyl)propanamide] | 106.195 |
| O=C(CCl)Nc1c(Cl)c(Cl)cc(Cl)c1Cl [4-O16, 2-chloro-N-(2,3,5,6-tetrachlorophenyl)acetamide] | 99.4759 |
| C=CC(=O)N(Cc1c(C)cccc1C)C1CCc2nc(C)nn2C1 (stereo not shown) [1-B11, N-[(2,6-dimethylphenyl)methyl]-N-{2-methyl-5H,6H,7H,8H-[1,2,4]triazolo[1,5-a]pyridin-6-yl}prop-2-enamide] | 109.011 |
| CC(C)n1cc(C2=CCCN(C(=O)CCl)CC2)nn1 [5-F05, 2-chloro-1-{4-[1-(propan-2-yl)-1H-1,2,3-triazol-4-yl]-2,3,6,7-tetrahydro-1H-azepin-1-yl}ethan-1-one] | 83.4244 |
| C=CC(=O)N(Cc1ccccc1)C1CCOc2ccc(OC)cc21 (stereo not shown) [1-O17, N-benzyl-N-(6-methoxy-3,4-dihydro-2H-1-benzopyran-4-yl)prop-2-enamide] | 97.4066 |
